Measurements from PubChem BioAssay AID686971 (National Center for Advancing Translational Sciences (NCATS), 2013).
About 7,500 (2.1%) of roughly 360,000 compounds were called active. The inconclusive results got no clear call from the source; some entries with a clear call stand among them for comparison. Calls follow the shape of the dose curve; as a rule, active = well fitted cell-killing curve with a large enough effect; inconclusive = small, poorly fitted or top-dose-only effect, or effect the other way, or another doubt; inactive = no such curve, though single readings can be large or run the other way. No potency is given beside an inconclusive call; the fits are too rough.

Assay: qHTS for induction of synthetic lethality in tumor cells producing 2HG: qHTS for the HT-1080-IDH1KD cell line;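 as to activity, negative = toxicity: 0% = DMSO wells and -100% = cell-free medium wells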
Conditions: HT-1080 IDH1 knockdown viability, ATP luminescence, 48 h; activity, negative = toxicity: at 46.1 µM (top of the series) unless noted
Method in brief: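 In this qHTS, HT-1080 cells depleted of IDH1 are exposed for 48 h at 37 °C to compound titrations. Toxicity is scored from CellTiter-Glo luminescence, with DMSO as full viability and medium alone as none.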
Potency is read from the fitted curve at half-maximal effect; tags tell the direction and shape of the fitted curve.

Q: Which “activity, negative = toxicity” value does the source give for CCOC(=O)c1nn(-c2ccc(Cl)cc2)c2nnc(Cc3ccccc3)c(=O)n12 here?
A: inactive: 5.15%

Q: With c1ccc(-c2nc(N3CCN(c4ccccc4)CC3)nc(-n3ccnc3)n2)cc1 as the compound, how does the Potency read?
A: inconclusive [cytotoxic, single point]

Q: For CCC(C)(C)n1nnnc1C(c1cc2ccc(OC)cc2[nH]c1=O)N1CCN(C2CCCCC2)CC1 (configuration not stated), which Potency is on record?
A: inconclusive [cytotoxic, single point]

Q: Which “activity, negative = toxicity” value does the source give for O=c1[nH]cnc2c1c(-c1ccccc1)cn2-c1ccc(Br)cc1 here?
A: inactive: -19.1%

Q: For CCCOc1ccccc1NC(=O)CC1Nc2ccccc2NC1=O (configuration not stated), which Potency is on record?
A: inconclusive [cytotoxic, single point]

Q: With CCOC(=O)c1sc(NC(=O)c2ccc(S(=O)(=O)N3CCCCC3)cc2)nc1-c1ccccc1 as the compound, how does the “activity, negative = toxicity” value read?
A: inactive: 11.7%

Q: With CCC(CC)N1CCN(Cc2nc3ccc([N+](=O)[O-])cc3c(=O)n2-c2ccccc2F)CC1 as the compound, how does the “activity, negative = toxicity” value read?
A: inactive: 1.14%

Q: For CCNC(=S)NN=C1c2ccccc2-c2ccccc21, which “activity, negative = toxicity” value is on record?
A: inactive: -3.14%

Q: With Cc1cc(C(=O)COC(=O)c2ccccc2O)c(C)n1Cc1cccs1 as the compound, how does the Potency read?
A: inconclusive [cytotoxic, single point]

Q: For O=C(COC(=O)Cc1cccc(F)c1)NC(=O)NC1CCCCC1, which “activity, negative = toxicity” value is on record?
A: inactive: 7.17%

Q: Which Potency does the source give for Cc1cc(N2CCN(C)CC2)nc2ccc(NC(=S)N3CCN(c4ccccn4)CC3)cc12 here?
A: inconclusive [cytotoxic, single point]

Q: For N#CCCn1cc(C(=O)O)c(-c2cccs2)n1, which “activity, negative = toxicity” value is on record?
A: inactive: 9.78%

Q: With CC(=O)c1cc(NC(=O)c2ccccc2)c(=O)oc1C as the compound, how does the Potency read?
A: inconclusive [cytotoxic, single point]

Q: For COc1ccc(-c2c(-c3ccc(O)cc3O)n[nH]c2C)cc1OC, which Potency is on record?
A: inconclusive [cytotoxic, single point]

Q: Which Potency does the source give for CCOc1ccc(-c2cc(C(=O)NCCCN3CCN(CC)CC3)c3ccccc3n2)cc1 here?
A: inconclusive [cytotoxic, single point]

Q: Which “activity, negative = toxicity” value does the source give for CC1(C)C[C@H](O)[C@]2(CO)CC[C@]3(C)C(=CCC4[C@@]5(C)CC[C@H](O)C(C)(C)C5CC[C@]43C)[C@@H]2C1 (some centres not stated) here?
A: inactive: 0.928%

Q: Which “activity, negative = toxicity” value does the source give for O=C(CCCl)N1CCN(c2nc(-c3ccccc3)cs2)CC1 here?
A: inactive: -0.0073%

Q: Which Potency does the source give for COc1cnc(SCc2ccc(Cl)c(Cl)c2)nc1Cl here?
A: inconclusive [cytotoxic, single point]

Q: With O=C(OCn1ncc(Cl)c(Cl)c1=O)c1ccc(C(F)(F)F)cc1 as the compound, how does the Potency read?
A: inconclusive [cytotoxic, single point]

Q: For O=[N+]([O-])c1ccc2nc(-c3ccccc3)n(OCc3ccc(Cl)cc3)c2c1, which “activity, negative = toxicity” value is on record?
A: inactive: -16.6%

Q: Which “activity, negative = toxicity” value does the source give for Cc1oc(-c2ccc(Cl)cc2)nc1CN1CCCC(C(=O)NC2CC2)C1 (configuration not stated) here?
A: inactive: -5.99%

Q: For CC1CCCN(C(=O)c2cccc(S(=O)(=O)N3CCCc4ccccc43)c2)C1 (configuration not stated), which “activity, negative = toxicity” value is on record?
A: inactive: -11.8%

Q: With O=C1CCc2cc(S(=O)(=O)N3CCN(c4cccc(C(F)(F)F)c4)CC3)ccc2N1 as the compound, how does the Potency read?
A: inconclusive [cytotoxic, single point]

Q: Which “activity, negative = toxicity” value does the source give for COc1ccccc1C1=NC(c2ccc(F)cc2)N=C1C (configuration not stated) here?
A: inactive: -12.1%

Q: With CC1(C)C[C@H](O)[C@]2(CO)[C@H](O)C[C@]3(C)C(=CCC4[C@@]5(C)CC[C@H](O)C(C)(C)C5CC[C@]43C)[C@@H]2C1 (some centres not stated) as the compound, how does the Potency read?
A: inconclusive [cytotoxic, single point]

Q: With CC(C)(C)[C@@H]1COC(=O)[C@H](Cc2ccc(F)cc2)CC/C=C\C[C@H](CC(=O)N(CCO)Cc2ccccc2)C(=O)N1 as the compound, how does the Potency read?
A: inconclusive [cytotoxic, single point]

Q: Which Potency does the source give for Cc1cc(C)c2nc(N3CCC(C(=O)NCCCN4CCCCC4)CC3)sc2c1 here?
A: active: 18.4 µM

Q: Which activity, negative = toxicity does the source give for CC(C)(C)C1CCc2c(sc(NC(=O)c3cccs3)c2C(=O)N2CCCCC2)C1 (configuration not stated) here?
A: inconclusive: -31.4% [cytotoxic]

Q: Which “activity, negative = toxicity” value does the source give for Cc1cccc(-n2ncc3c(N4CCCC4)ncnc32)c1 here?
A: inactive: 12.9%

Q: For CN(C)CCCC1(c2ccc(F)cc2)OCc2cc(C#N)ccc21 (configuration not stated), which Potency is on record?
A: inconclusive [cytotoxic, single point]

Q: With Cc1ccc(C2CC(c3cccs3)=NN2C(=O)CCl)cc1 (configuration not stated) as the compound, how does the Potency read?
A: active: 4.11 µM

Q: With CC1=CC2=NC(=O)/C(=C\c3cccn3CCOc3ccc(C)c(C)c3)C(=N)N2O1 as the compound, how does the “activity, negative = toxicity” value read?
A: inactive: -4.95%

Q: For Fc1ccc(-n2nnnc2-c2cnc(-c3cccs3)nc2C(F)(F)F)cc1, which Potency is on record?
A: inconclusive [cytotoxic, partial curve]

Q: Which Potency does the source give for COc1ccc(CN2c3c(Br)cccc3C(=O)CS2(=O)=O)cc1 here?
A: inconclusive [cytotoxic, single point]

Q: With Clc1ccc(CONc2ncnc3nonc23)c(Cl)c1 as the compound, how does the Potency read?
A: inconclusive [cytotoxic, single point]

Q: Which Potency does the source give for O=c1nc(Oc2ccccc2)nc2ncccn12 here?
A: inconclusive [cytotoxic, single point]

Q: For CN1CCN(C2=C(Cl)C(=O)C(c3cnc(N4CCCCC4)s3)=C(Cl)C2=O)CC1, which Potency is on record?
A: inconclusive [cytotoxic, single point]

Q: Which Potency does the source give for CCCn1nc(C(=O)NNC(=O)c2cccc(S(=O)(=O)NC(C)C)c2)c2ccccc2c1=O here?
A: inconclusive [rising, single point]

Q: For O=C(Nc1ccc(Cl)c(S(=O)(=O)N2CCOCC2)c1)[C@@H]1CCCN1C(=O)c1cccs1, which “activity, negative = toxicity” value is on record?
A: inactive: -2.52%

Q: Which “activity, negative = toxicity” value does the source give for Fc1cccc(CCN2CCN=C2Nc2ccccc2)c1 here?
A: inactive: -2.43%

Q: For Cc1ccccc1CN1CC2=C(CCN(Cc3ccccc3)C2=O)N2CCN=C12, which Potency is on record?
A: inconclusive [cytotoxic, single point]

Q: With Cc1ccc(-n2c(SCC(=O)Nc3ccc4cn[nH]c4c3)nnc2-c2ccco2)cc1 as the compound, how does the Potency read?
A: inconclusive [cytotoxic, partial curve]

Q: Which “activity, negative = toxicity” value does the source give for COc1ccc(NS(=O)(=O)c2cc(C(=O)N(C)CCc3ccccn3)ccc2Cl)cc1 here?
A: inactive: 13.7%

Q: Which “activity, negative = toxicity” value does the source give for O=C(NCC(c1ccco1)N1CCc2ccccc21)c1c(F)cccc1F (configuration not stated) here?
A: inactive: -2.11%

Q: For COc1ccc(Cl)cc1NC(=O)C(C)OC(=O)c1ccc(NS(=O)(=O)c2ccc3[nH]c(=O)[nH]c3c2)cc1 (configuration not stated), which Potency is on record?
A: inconclusive [cytotoxic, single point]

Q: With O=C(Nc1nnc([C@@H]2C[C@H](O)[C@@H](CO)O2)s1)Nc1ccccc1F as the compound, how does the Potency read?
A: inconclusive [rising, single point]

Q: For Cc1ccc(S(=O)(=O)Nc2ccc(S(=O)(=O)Nc3nccs3)cc2)c([N+](=O)[O-])c1, which “activity, negative = toxicity” value is on record?
A: inactive: -1.65%

Q: For C[C@H](NC(=O)c1[nH]cnc1C(=O)Nc1cccc(Cl)c1)c1ccccc1, which “activity, negative = toxicity” value is on record?
A: inactive: -8.07%

Q: For CCOC(=O)[C@]12CCCC=C1N(Cc1ccc3c(c1)OCO3)C(=O)[C@H](CC(=O)NCC13CC4CC(CC(C4)C1)C3)C2, which Potency is on record?
A: inconclusive [cytotoxic, single point]

Q: Which Potency does the source give for CCNC(=S)N(CCc1c(C)[nH]c2ccc(Cl)cc12)Cc1ccco1 here?
A: inconclusive [cytotoxic, single point]

Q: With O=C(COC(=O)c1ccc([N+](=O)[O-])o1)NC1CCCC1 as the compound, how does the “activity, negative = toxicity” value read?
A: inactive: 3.47%

Q: For Cc1ccc(N=Nc2ccc(O)c(/C=N\NC(=O)c3ccc(N)cc3)c2)cc1C, which Potency is on record?
A: active: 1.58 µM

Q: For COc1ccc2c(C=Nc3c(C)n(C)n(-c4ccccc4)c3=O)c(O)n(Cc3ccco3)c(=O)c2c1, which Potency is on record?
A: inactive

Q: For COC(=O)c1nn(-c2ccc3c(c2)OCO3)cc1O, which Potency is on record?
A: inconclusive [cytotoxic, single point]

Q: Which “activity, negative = toxicity” value does the source give for O=c1[nH][nH]cc1C=Nc1ccc(Cl)cc1Cl here?
A: inactive: -5.33%

Q: For O=C(O)Cc1sc(-c2cccnc2)nc1-c1ccc(Br)cc1, which “activity, negative = toxicity” value is on record?
A: inactive: -1.77%

Q: For Cc1ccc(C)c(NC(=O)CN(C)C(=O)c2cccc(Oc3ccccc3)c2)c1, which Potency is on record?
A: inconclusive [cytotoxic, single point]

Q: Which Potency does the source give for O=S(=O)(NCCC1=CCCCC1)c1cccc(S(=O)(=O)N2CCOCC2)c1 here?
A: inconclusive [cytotoxic, single point]

Q: Which Potency does the source give for Cc1ccc(NC(=O)c2cc(N3C(=O)C=CC3=O)ccc2N2CCOCC2)cc1 here?
A: active: 23.1 µM

Q: Which Potency does the source give for CCOP(=O)(OCC)c1nc(-c2cccc3ccccc23)oc1NCc1ccc(OC)cc1 here?
A: inconclusive [cytotoxic, single point]

Q: Which Potency does the source give for COc1ccc(-c2ccc(C(=O)NCc3ccco3)c3occc23)c(C)c1 here?
A: inconclusive [cytotoxic, single point]

Q: With COc1cccc(NC(=O)CN2C(=O)NC3(CCCc4ccccc43)C2=O)c1 (configuration not stated) as the compound, how does the “activity, negative = toxicity” value read?
A: inactive: 3.34%

Q: For O=C(N/N=C/c1c(O)ccc2ccccc12)C(=O)N1CCCC1, which Potency is on record?
A: inconclusive [cytotoxic, partial curve]

Q: With CCCCCc1c(-c2ccc(OC)c(OC)c2)ncn1CCc1ccccc1OC as the compound, how does the Potency read?
A: active: 10.3 µM

Q: Which Potency does the source give for O=C(NCc1ccco1)c1cc([N+](=O)[O-])ccc1Cl here?
A: inconclusive [rising, partial curve]

Q: With CC(C)NC(=O)c1cc(-c2ccc(F)cc2OC(C)C)n[nH]1 as the compound, how does the “activity, negative = toxicity” value read?
A: inactive: 6.98%

Q: With NC(Cc1ccc(C(F)(F)F)cc1)c1csc(Nc2ccc(C(=O)c3ccccc3)cc2)n1 (configuration not stated) as the compound, how does the Potency read?
A: inconclusive [cytotoxic, single point]

Q: For c1ccc(CNc2ncnc3c2cnn3Cc2ccccc2)cc1, which Potency is on record?
A: active: 7.94 µM

Q: Which activity, negative = toxicity does the source give for Cc1ccn2c(Nc3ccccc3)c(-c3ccccn3)nc2c1 here?
A: inconclusive: -29.4% [cytotoxic]

Q: With N#CC1=C(SCC(=O)NC23CC4CC(CC(C4)C2)C3)NC(=O)C(C#N)C12CCCCC2 (configuration not stated) as the compound, how does the Potency read?
A: inconclusive [cytotoxic, single point]

Q: Which Potency does the source give for COc1ccc(C(=O)CCS(=O)(=O)c2ccc(C)cc2)cc1 here?
A: inconclusive [cytotoxic, single point]

Q: For CSc1c(CC(=O)Nc2ccccc2Cl)n(Cc2ccccc2)c2ccccc12, which Potency is on record?
A: inconclusive [cytotoxic, single point]
